# Assay results: PubChem BioAssay AID493208 (National Center for Advancing Translational Sciences (NCATS), 2011)
# Among all 44,000 compounds or so, about 340 (0.77%) were called active. Another 5% or so got no clear call; they are omitted. Calls come from the whole dose curve; as a rule, active = well fitted inhibition curve with a large enough effect; inconclusive = small, poorly fitted or top-dose-only effect; inactive = flat fitted curve, though single readings scatter. The list shows a part of the results.
# Experiment: Acumen qHTS Assay for Inhibitors of the mTORC1 Signaling Pathway in MEF (Tsc2-/-, p53-/-) Cells: Sytravon;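 note: plate controls were DMSO for no effect and rapamycin for full effect; nearly all actives have a fitted effect of over 50% in size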
# Settings: phospho-rpS6 immunofluorescence/PI, 24 h; series mostly up to 38.3 µM; activity change, negative = inhibition: at the top concentration
# Summary of the method: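 Readout is phospho-S6 Alexa 488 signal normalized to PI per well, reported as % active cells with thresholds set from rapamycin (7.5 nM) and DMSO controls. Cells: Tsc2-/-, p53-/- MEFs, 24 hrs compound at 37 C; PI cell number serves as viability.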
row,SMILES,"activity change, negative = inhibition"
1,CCc1ccc(C(=O)c2cn(Cc3ccccc3)c3cc(OC)c(OC)cc3c2=O)cc1,inactive: -11.4%
2,Oc1c(C(c2ccc(Cl)cc2Cl)N2CCCC2)sc2nc(-c3ccco3)nn12 (stereo not drawn),inactive: -10.2%
3,CCOc1ccc(CCNC(=O)CCSCc2cccc(Cl)c2)cc1OCC,inactive: 8.22%
4,CCc1ccccc1NC(=O)COC(=O)c1cn(CC)c2nc(C)ccc2c1=O,inactive: -1.89%
5,CCCCOC(=O)c1ccc(Nc2nc3ccc(C)cc3n3cnnc23)cc1,inactive: -2.04%
6,CN(C)c1ccc(NC(=O)C2(c3cccs3)CCOCC2)cc1,inactive: -5.38%
7,O=C(Nc1cc(Cl)ccc1O)c1cc2nc(-c3ccc4c(c3)OCO4)cc(C(F)(F)F)n2n1,inactive: -13.5%
8,O=C(CSCc1ccc(F)cc1)N1CCc2c([nH]c3ccccc23)C1c1ccccc1 (stereo not drawn),inactive: -0.795%
9,CCCOc1ccc(Cn2c(=O)sc3ccccc32)cc1,inactive: -12.7%
10,O=C(CC(=O)Nc1ccccc1F)Nc1ccc2nc3n(c(=O)c2c1)CCCCC3,inactive: 0.473%
11,Cc1ccc(-c2nc(SCC(=O)Nc3cc(C)on3)c3c(=O)n(C)c(=O)n(C)c3n2)cc1,inactive: -29.5%
12,Cc1cccc(N2CCN(C(=O)c3ccc4c(c3)N(Cc3cccc(Cl)c3)C(=O)c3ccccc3S4=O)CC2)c1C (stereo not drawn),inactive: -11.7%
13,COc1ccccc1NC(=O)c1c(NC(=O)c2cccs2)sc2c1CCC(C(C)(C)C)C2 (stereo not drawn),inactive: 4.63%
14,CCCCCNc1nc2c(-c3ccccc3)nnn2c2ccccc12,inactive: -11.1%
15,CCc1ccc(OC(=O)c2sc3ncn(Cc4cccc(F)c4)c(=O)c3c2C)cc1,inactive: -4.64%
16,Cc1ccc(NC(=O)c2cc(-c3cccs3)nc3ccccc23)c(C)c1,inactive: -10.6%
17,CC(C)CCn1c(=O)c2sccc2n2c(CCCC(=O)Nc3ccc(F)c(Cl)c3)nnc12,inactive: 4.47%
18,O=C(NCc1ccc(F)cc1Cl)c1ccc(CSCc2ccccc2Cl)o1,inactive: 1.84%
19,Cc1ccc(N2CCN(C(=O)Nc3cn(CC(C)C)c(=O)c4ccccc34)CC2)c(C)c1,inactive: 4.85%
20,CC(C)Oc1ccc(CNC(=O)c2cnc3sc(N4CCCCCC4)nn3c2=O)cc1,inactive: -1.85%
21,CCOc1ccc(/C=C/c2nc(C#N)c(N3CCCCCC3)o2)cc1,inactive: 0.145%
22,Cc1ccc(CNC(=O)c2ccc(CSCc3c(F)cccc3Cl)o2)cc1,inactive: 8.42%
23,COc1ccccc1NC(=O)Cn1c(=O)n(Cc2nc(C)no2)c(=O)c2cc3c(cc21)OCO3,inactive: -9.61%
24,COc1ccccc1NC(=O)N1CCOc2ccccc21,inactive: 0.236%
25,Cc1cc(C)n2nc(CNS(=O)(=O)c3ccc(F)cc3)nc2n1,inactive: 0.902%

row,SMILES,"activity change, negative = inhibition"
1,CCCN(CCC)CCNC(=O)Cn1cnc2sc(C)c(S(=O)(=O)N3CCN(c4ccccc4OC)CC3)c2c1=O,inactive: -0.321%
2,COC(=O)c1cc2oc3ccccc3c2n1CC(=O)Nc1ccc(C)cc1Cl,inactive: -1.38%
3,COc1cccc(CNC(=O)c2ccc(CN3CC(=O)N4CCCCC4C3=O)cc2)c1 (stereo not drawn),inactive: -4.06%
4,COc1ccccc1/C=C(\C#N)C(=O)NCC1CCCO1 (stereo not drawn),inactive: -0.335%
5,CCn1c(C(=O)NCc2ccccc2)cc2sc(Cl)cc21,inactive: -1.06%
6,CCOc1ccc(-n2c(SCC(=O)N3CCCc4ccccc43)nc3c([nH]c4ccccc43)c2=O)cc1,inactive: -0.534%
7,CCOc1ccccc1NC(=O)CCS(=O)(=O)c1ccc(OC)cc1,inactive: 3.93%
8,CCc1ccc(NC(=O)c2cc(CN3CCOCC3)on2)cc1,inactive: -0.74%
9,CN(c1ccc(Cl)cc1)S(=O)(=O)c1nnc(NC(=O)c2ccco2)s1,inactive: -1.51%
10,CCOC(=O)c1[nH]c(C)c(C(=O)NCCc2ccccc2)c1C,inactive: -3.82%
11,O=C(CCn1c(=O)c2ccccc2n(Cc2ccc(Cl)cc2)c1=O)NCc1ccc2c(c1)OCO2,inactive: -20.8%
12,COc1ccc(CCNC(=O)C(=O)Nc2ccc(C)c(C)c2)cc1OC,inactive: 10.4%
13,CCCCC(=O)Nc1cccc(-c2nc3ccccc3s2)c1,inactive: -26.7%
14,Cc1cccc(-n2ccnc2SCC(=O)Nc2cc(C(F)(F)F)ccc2Cl)c1,inactive: -14.1%
15,CC(C)c1ccc(Nc2c(-c3ccsc3)nc3ccc(Cl)cn23)cc1,inactive: -5.01%
16,COc1ccc(C)cc1NC(=O)Cc1ccc(NC(=O)N2CCCCc3ccccc32)cc1,inactive: -22.8%
17,Cc1ccc(C)c(Oc2c(C(F)(F)F)oc3c(CN4CCN(C)CC4)c(O)ccc3c2=O)c1,inactive: -0.602%
18,CCOC(=O)C1=C(CN(C)Cc2ccccc2)NC(=O)NC1c1ccc(OC(C)C)cc1 (stereo not drawn),inactive: -6.6%
19,CCn1cc(C(=O)NCc2ccccc2Cl)c(=O)c2cc(S(=O)(=O)N3CCOCC3)ccc21,inactive: 1.6%
20,CCC(=O)C1=C(c2ccccc2)N(C(=O)CC)n2c(nnc2C2CCCCC2)S1,inactive: -0.762%
21,O=C(Nc1ccccc1[N+](=O)[O-])c1csnn1,inactive: 0.863%
22,COC(=O)c1c(SC)nc2ccccc2c1OCc1cc(C)ccc1C,inactive: -7.95%
23,CCCOc1ccc(CNC(=O)c2cc3oc4ccccc4c3n2C)cc1,inactive: 0.507%
24,O=C(Nc1ccc2nc(SCC(=O)N3CCc4ccccc43)sc2c1)c1ccc(Cl)cc1,inactive: -0.421%
25,O=C(CSc1nc(-c2cccs2)cc(C(F)(F)F)n1)Nc1ccccc1Cl,inactive: -24.4%

row,SMILES,"activity change, negative = inhibition"
1,Cc1ccc(NC(=O)CN2C(=O)C(c3ccc(F)cc3)=NC2(C)C)c(C)c1,inactive: -2.23%
2,Cc1cccc(C(=O)Nc2sc3c(c2C(=O)Nc2ccccc2)CCC3)c1,inactive: 7.94%
3,CCOc1ccccc1NC(=O)C(=O)NCC(c1cccnc1)N1CCN(c2ccccc2)CC1 (stereo not drawn),inactive: 7.06%
4,Cc1cccc(Cc2c(C)nc3nc(SCc4cccc(F)c4)nn3c2C)c1,inactive: 5.46%
5,O=S(=O)(c1ccccc1)c1nnn2c1nc(NC1CCCCCC1)c1sccc12,inactive: -5.9%
6,CCOc1ccc(CCNC(=O)CN2C(=O)COc3ccc(S(=O)(=O)N(CC)CC)cc32)cc1,inactive: -4.33%
7,Cc1ccc(Cn2ccnc2SCC(=O)NC2CCCC2)cc1,inactive: -7.84%
8,COc1cc(S(=O)(=O)n2ccnc2C(C)C)ccc1Br,inactive: 6.29%
9,Cc1ccc(-c2nc(S(=O)(=O)c3ccc(C)cc3)c(N3CCCCC3)o2)cc1,inactive: 9.52%
10,COc1ccccc1NC(=O)COC(=O)CC(C)(C)CC1=NS(=O)(=O)c2ccccc2N1,inactive: -0.237%
11,COc1ccc2c(CNCc3ccco3)c(C(=O)O)n(Cc3ccccc3)c2c1,inactive: -9.74%
12,COc1ccc(Cl)cc1NC(=O)Cn1nnc(C(=O)NCc2cccs2)c1N,inactive: -18.6%
13,COc1cccc(N2CC(NC(=O)C3CCCC3)CC2=O)c1 (stereo not drawn),inactive: 0.849%
14,COc1ccc(N2CCN(C(=O)c3c4c(nc5ccccc35)C(=O)N(C3CCCCC3)C4)CC2)cc1,inactive: -9.36%
15,CCc1ccc(-n2c(=O)c3ccc(C(=O)NCCc4ccccc4)cc3n(Cc3ccccc3C#N)c2=O)cc1,inactive: -5.73%
16,COc1ccc(-c2nc3ccccc3o2)cc1NC(=O)c1ccc(OCC(C)C)cc1,inactive: -0.86%
17,COc1ccc(-c2nnc(SCC(=O)c3ccc(NC(C)=O)cc3)o2)cc1OC,inactive: 0.608%
18,COC(=O)c1c(-c2cccs2)csc1NC(=O)c1ccc(C(C)(C)C)cc1,inactive: -3.04%
19,NC(=O)C1CCN(C(=O)c2ccc3c(c2)N(Cc2cccc(Cl)c2)C(=O)c2ccccc2S3(=O)=O)CC1,inactive: 0.654%
20,CCOC(=O)c1c(-c2ccc(C)cc2C)csc1NC(=O)c1ccccc1Cl,inactive: 8.87%
21,CCOc1ccc(NS(=O)(=O)c2ccc3[nH]cc(C(=O)N(C)C4CCCCC4)c(=O)c3c2)cc1,inactive: 0.512%
22,Cc1ccc2c(=O)cc(C(=O)Nc3c(C(=O)c4ccccc4)oc4ccccc34)oc2c1,inactive: 2.78%
23,O=C(NCCCN1CCCCC1)c1ccc2c(c1)sc1nc(-c3ccc(F)cc3)cn12,inactive: 0%
24,COCCNC(=O)Cn1cc2c(n1)-c1c(oc(C(=O)N3CCCC3)c1C)CC2,inactive: 0.0867%
25,NC(=O)Cn1c(=O)n(CCCCCC(=O)NCc2ccccc2Cl)c(=O)c2sccc21,inactive: 5.19%

row,SMILES,"activity change, negative = inhibition"
1,COc1ccc(C2C(=O)N(C3CCCCCC3)CC(=O)N2Cc2ccccc2)cc1 (stereo not drawn),inactive: 6.27%
2,CC(CNC(=O)c1ccc(Nc2nc3ccccc3n3nnnc23)cc1)c1ccccc1 (stereo not drawn),inactive: 2.95%
3,CCCCOC(=O)/C(C#N)=C/c1ccc(-c2ccc(Br)cc2)o1,inactive: -4.73%
4,CCC(=O)N1CCN(c2nc3c(C)cccc3s2)CC1,inactive: -3.21%
5,CCCn1c2ccccc2c2cnn(CC(=O)NC(C)CC)c(=O)c21 (stereo not drawn),inactive: 0.821%
6,COc1ccc(OC(=O)CSc2nnc(-c3ccc(F)cc3)o2)cc1,inactive: -0.726%
7,Cc1ccc([N+](=O)[O-])c(Oc2ncnc3c2oc2ccccc23)c1,inactive: 0.796%
8,Cc1ccc(NC(=O)CCCN2C(=O)COc3ccc(C)cc32)c(C)c1,inactive: 1.8%
9,CCc1cccc(C)c1NC(=O)c1nc2ccccc2nc1N1CCCCC1,inactive: -8.45%
10,COc1ccc2c(Sc3ccccc3)c(C(=O)N3CCC(C)CC3)[nH]c2c1,inactive: 2.9%
11,Cc1ccc(N2C(=O)CSC23C(=O)N(CC(=O)Nc2ccc(C)cc2C)c2ccccc23)cc1 (stereo not drawn),inactive: -9.17%
12,CCc1ccc(C(=O)CSc2nc(-c3ccccc3)nc3c2CCCC3)cc1,inactive: -9.81%
13,Cc1ccc(CNC(=O)CN2C(=O)CSc3ccc(S(=O)(=O)N4CCCC4)cc32)cc1,inactive: -3.64%
14,COc1ccc2nc3sc(C(=O)N4CCN(c5ccc(F)cc5)CC4)cc3cc2c1,inactive: 0.278%
15,Cc1ccc(C)c(N2CCN(S(=O)(=O)c3ccc4c(c3)CCCN4C(=O)C3CCC3)CC2)c1,inactive: 0.762%
16,COc1ccc(CNS(=O)(=O)c2ccc(F)c(C(=O)Nc3c(C)cc(C)cc3C)c2)cc1,inactive: 6.66%
17,CCOC(=O)c1cc(-c2ccc(OC)cc2)n(CCC(=O)Nc2cccc(C(C)=O)c2)c1C,inactive: -1.21%
18,Cc1cc2oc(C(=O)Nc3sc4c(c3C(=O)NCc3ccccc3)CCCC4)cc(=O)c2cc1C,inactive: -0.77%
19,CN(C)c1ccc(CNC(=O)CN2C(=O)CCn3nc(-c4cn(C)c5ccccc45)cc32)cc1,inactive: -0.191%
20,COc1cccc(-c2nc3c(c(SCc4ccccc4Cl)n2)Cc2c(CO)cnc(C)c2O3)c1,inactive: -2.8%
21,CCCN(CCC)C(=O)C1CCCN(c2ncnc3onc(-c4ccc(F)cc4)c23)C1 (stereo not drawn),inactive: 0.198%
22,Cc1ccc(CSCCC(=O)N2CCN(c3cc(C)ccc3C)CC2)cc1,inactive: 0%
23,CCC(C)NC(=O)CSc1nnc(-c2ccc(C)cc2)c(-c2ccc(C)cc2)n1 (stereo not drawn),inactive: 8.16%
